# The other results are listed elsewhere or left out.
# System: PfHDP1 homeodomain (GST-tagged)
# Assay: gcPBM binding intensity (ln(normalized median fluorescence intensity)); higher = stronger DNA binding
# In short: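 GST-tagged P. falciparum DNA-binding domains, expressed in E. coli (about 25 μg on average), were applied for 1 h to an Agilent 4 × 180k array of primer-extended double-stranded 36-bp intergenic genomic probes plus negative controls. The binding buffer was 1× PBS with 1% milk, 0.2 mg/ml BSA, 0.5% salmon testes DNA and 0.03% Triton X-100. Bound protein was detected with Alexa488 anti-GST antibody and scanned at 488 nm. Binding intensity is the highest Masliner-normalised natural-log median intensity across replicate spots of either probe orientation.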
row,Sequence,gcPBM binding intensity (ln)
1,TCAAGAATTTTAAAGAGTACATAAAACAATAATATA [XGTACX_site3923],6.36
2,CAAAAATAACGAGTCAAACACACATATATATATATA [CACACA_site2038],9.19
3,AAAGGGATAACACCAAAAAAAATAAAAATAAAAATA [GTGCAC_negctrl_site680],6.55
4,TTGCAAATATATGGTTGTACTCAAAAAAAAAAAAAA [XGTACX_site6975],6.47
5,TCTTTCTATTTATAATGTACTCAAAATTATTCTATA [XGTACX_site4867],6.45
6,AAAATATAATATATTGCACACAAAAAGTGAATTATT [CACACA_site8489],10.6
7,TACCATTATTTTAAGTGTACATACTAATTTATATAT [XGTACX_site6548],6.56
8,TTTTACCACTAAAAATGTACAAAAAAAAAAAAAAAA [XGTACX_site4226],6.2
9,CCTTGCATTTATTATACACACACAAAAAAATATATA [CACACA_site7964],7.58
10,AAATTGTGTGAAATATATTAATATTATTATTATTAT [TGCATGCA_negctrl_site189],6.41
11,TATGCACCCAGACACACACACACAACTAAAAAATAA [CACACA_site2567],8.1
12,TTTGTAGATTTTGTAACACACACATATATATACATA [CACACA_site8757],6.57
13,TTTTTTTTTTTTGAGTGTACAAGATTGTTGTTCCAA [XGTACX_site6120],6.17
14,AAATATTTGTGTGGTTGTACTATAATGATAAAAATA [XGTACX_site7703],6.85
15,TTTTTTCAAATTATTCGATATGTAAAAAAATAAAAT [GTGCAC_negctrl_site241],6.34
16,GGTTTGAATTTTTAAGTGCATATAACATAAATGAAA,9.41
17,CATACATACAAACACACACACATATATATATATATA [CACACA_site43],9.35
18,TTATATTATATATATATTATATATATGTATGCATAA [TGCATGCA_negctrl_site481],6.43
19,AGATAGCTATTAAAAAGTACAAAAAAATATATATAT [XGTACX_site6289],7.79
20,TATTTTATATAAAGGTGTACTTATACAAAAATATAT [XGTACX_site7435],6.52
21,TATACAGGAATATTTTTACACACTAATAATTATAAA [CACACA_site8477],6.43
22,ATAAATACAGATATTACACACTTCTTATTCTAAGAA [CACACA_site5640],6.35
23,AAAAAAAAATAAAAAAGTACATTCATTTTATAAGAT [XGTACX_site3507],6.41
24,CATGTCAAAATTATACGTACATATATAAGTTCCATT [XGTACX_site6331],6.56

# Source: the supplement of paper PMC11417369
